# Some of the results follow.
# B1: OrfX (Escherichia coli), Q9X4B6_ECOLX (protein)
# chain: MIKIARIAVTLGLLSSLGAQAYAAGLVVNDNDLRNDLAWLSDRGVIHLSLSTWPLSQEEIARALKKAKPSYSSEQVVLARINQRLSALKADFRVTGYTSTDQPGTPQGFGQTQPADNSLGLAFNNSGEWWDVHLQGNVEGGERISNGSRFNANGAYGAVKFWNQWLSFGQVPQWWGPGYEGSLIRGDAMRPMTGFLMQRAEQAAPETWWLRWVGPWQYQISASQMNQYTAVPHAKIIGGRFTFTPFQSLELGASRIMQWGGEGRPQSFSSFWDGFTGHDNTGTDNEPGNQLAGFDFKFKLEPTLGWPVSFYGQMVGEDESGYLPSANMFLGGVEGHHGWGKDTVNWYVEAHDTRTNMSRTNYSYTHHIYKDGYYQQGYPLGDAMGGDGQLIAGKVELITEDNQRWSTRLVYAKVNPENQSINKAFPHADTLKGLQLGWSGDVYQSVRLNTSLWYTNANNSDSDDVGASAGIEIPFSL
# Assays:
# Assay in all cases: glycan array binding signal (z-score within array); higher = stronger binding
# Settings in all cases: glycan notation: IUPAC condensed, linker removed
# [1] = biological target: GlcNAc(b1-3)Gal(b1-3)GalNAc
# Summary of the method: (§1)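 Glycan array data were curated from 3228 arrays in the Consortium for Functional Glycomics database and kept only where the protein sequence was available. Glycan names were converted to IUPAC-condensed notation, and columns mapping to the same glycan were averaged. The binding signal is a within-array Z-score, averaged across arrays of the same protein sequence at different concentrations or buffers and across linkers. Negative Z-scores can be read as non-binding.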
# GlcNAc(b1-3)Gal(b1-4)Glc = biological target: GlcNAc(b1-3)Gal(b1-4)Glc
# Summary of the method: as §1
# [2] = biological target: GlcNAc(b1-3)Gal(b1-4)GlcNAc
# Summary of the method: as §1
# [3] = biological target: GlcNAc(b1-3)Gal(b1-4)GlcNAc(b1-3)Gal(b1-4)GlcNAc
# Summary of the method: as §1
# GlcNAc(b1-3)GalNAc = biological target: GlcNAc(b1-3)GalNAc
# Summary of the method: as §1
# GlcNAc(b1-3)Man = biological target: GlcNAc(b1-3)Man
# Summary of the method: as §1
# [4] = biological target: GlcNAc(b1-3)[GlcNAc(b1-4)][GlcNAc(b1-6)]GlcNAc
# Summary of the method: as §1
# [5] = biological target: GlcNAc(b1-3)[GlcNAc(b1-6)]Gal(b1-4)GlcNAc
# Summary of the method: as §1
# [6] = biological target: GlcNAc(b1-3)[GlcNAc(b1-6)]GalNAc
# Summary of the method: as §1
# [7] = biological target: GlcNAc(b1-4)Gal(b1-4)GlcNAc
# Summary of the method: as §1
# GlcNAc(b1-4)GlcNAc = biological target: GlcNAc(b1-4)GlcNAc
# Summary of the method: as §1
# [8] = biological target: GlcNAc(b1-4)GlcNAc(b1-4)GlcNAc
# Summary of the method: as §1
# [9] = biological target: GlcNAc(b1-4)GlcNAc(b1-4)GlcNAc(b1-4)GlcNAc(b1-4)GlcNAc
# Summary of the method: as §1
# [10] = biological target: GlcNAc(b1-4)GlcNAc(b1-4)GlcNAc(b1-4)GlcNAc(b1-4)GlcNAc(b1-4)GlcNAc
# Summary of the method: as §1
# [11] = biological target: GlcNAc(b1-4)[GlcNAc(b1-6)]GalNAc
# Summary of the method: as §1
# [12] = biological target: GlcNAc(b1-6)Gal(b1-4)GlcNAc
# Summary of the method: as §1
# GlcNAc(b1-6)GalNAc = biological target: GlcNAc(b1-6)GalNAc
# Summary of the method: as §1
# GlcNAc3Prop(b1-4)GlcNAc = biological target: GlcNAc3Prop(b1-4)GlcNAc
# Summary of the method: as §1
# [13] = biological target: GlcNAc6S(b1-3)Gal(b1-4)GlcNAc
# Summary of the method: as §1
# Kdn(a2-3)Gal(b1-3)GalNAc = biological target: Kdn(a2-3)Gal(b1-3)GalNAc
# Summary of the method: as §1
# Kdn(a2-3)Gal(b1-3)GlcNAc = biological target: Kdn(a2-3)Gal(b1-3)GlcNAc
# Summary of the method: as §1
# Kdn(a2-3)Gal(b1-4)Glc = biological target: Kdn(a2-3)Gal(b1-4)Glc
# Summary of the method: as §1
# Kdn(a2-3)Gal(b1-4)GlcNAc = biological target: Kdn(a2-3)Gal(b1-4)GlcNAc
# Summary of the method: as §1
# [14] = biological target: Kdn(a2-3)Gal(b1-4)[Fuc(a1-3)]GlcNAc
# Summary of the method: as §1
# Kdn(a2-6)Gal(b1-4)GlcNAc = biological target: Kdn(a2-6)Gal(b1-4)GlcNAc
# Summary of the method: as §1
# [15] = biological target: Man(a1-2)Man(a1-2)Man(a1-3)Man
# Summary of the method: as §1
# [16] = biological target: Man(a1-2)Man(a1-2)Man(a1-6)[Man(a1-3)]Man
# Summary of the method: as §1
# Man(a1-2)Man(a1-3)Man = biological target: Man(a1-2)Man(a1-3)Man
# Summary of the method: as §1
# [17] = biological target: Man(a1-2)Man(a1-3)[Man(a1-2)Man(a1-6)]Man
# Summary of the method: as §1
# [18] = biological target: Man(a1-2)Man(a1-3)[Man(a1-2)Man(a1-6)]Man(a1-6)[Man(a1-2)Man(a1-2)Man(a1-3)]Man
# Summary of the method: as §1
# [19] = biological target: Man(a1-2)Man(a1-3)[Man(a1-2)Man(a1-6)]Man(a1-6)[Man(a1-2)Man(a1-2)Man(a1-3)]Man(b1-4)GlcNAc(b1-4)GlcNAc
# Summary of the method: as §1
# [20] = biological target: Man(a1-2)Man(a1-3)[Man(a1-6)]Man(a1-6)[Man(a1-2)Man(a1-3)]Man(b1-4)GlcNAc(b1-4)GlcNAc
# Summary of the method: as §1
# [21] = biological target: Man(a1-2)Man(a1-6)[Man(a1-3)]Man(a1-6)[Man(a1-2)Man(a1-2)Man(a1-3)]Man
# Summary of the method: as §1
# [22] = biological target: Man(a1-2)Man(a1-6)[Man(a1-3)]Man(a1-6)[Man(a1-2)Man(a1-2)Man(a1-3)]Man(b1-4)GlcNAc(b1-4)GlcNAc
# Summary of the method: as §1
# Man(a1-3)[Man(a1-6)]Man = biological target: Man(a1-3)[Man(a1-6)]Man
# Summary of the method: as §1
# [23] = biological target: Man(a1-3)[Man(a1-6)]Man(a1-6)[Man(a1-2)Man(a1-3)]Man(b1-4)GlcNAc(b1-4)GlcNAc
# Summary of the method: as §1
binder,measurement,setting,value
B1,glycan array binding signal (z-score),[1],-0.228
same,glycan array binding signal (z-score),GlcNAc(b1-3)Gal(b1-4)Glc,-0.011
same,glycan array binding signal (z-score),[2],-0.164
same,glycan array binding signal (z-score),[3],0.096
same,glycan array binding signal (z-score),GlcNAc(b1-3)GalNAc,-0.23
same,glycan array binding signal (z-score),GlcNAc(b1-3)Man,-0.141
same,glycan array binding signal (z-score),[4],11.2
same,glycan array binding signal (z-score),[5],-0.291
same,glycan array binding signal (z-score),[6],-0.261
same,glycan array binding signal (z-score),[7],-0.33
same,glycan array binding signal (z-score),GlcNAc(b1-4)GlcNAc,-0.182
same,glycan array binding signal (z-score),[8],-0.182
same,glycan array binding signal (z-score),[9],-0.176
same,glycan array binding signal (z-score),[10],-0.269
same,glycan array binding signal (z-score),[11],-0.118
same,glycan array binding signal (z-score),[12],-0.167
same,glycan array binding signal (z-score),GlcNAc(b1-6)GalNAc,-0.055
same,glycan array binding signal (z-score),GlcNAc3Prop(b1-4)GlcNAc,-0.301
same,glycan array binding signal (z-score),[13],-0.199
same,glycan array binding signal (z-score),Kdn(a2-3)Gal(b1-3)GalNAc,-0.206
same,glycan array binding signal (z-score),Kdn(a2-3)Gal(b1-3)GlcNAc,-0.349
same,glycan array binding signal (z-score),Kdn(a2-3)Gal(b1-4)Glc,-0.109
same,glycan array binding signal (z-score),Kdn(a2-3)Gal(b1-4)GlcNAc,-0.244
same,glycan array binding signal (z-score),[14],0.343
same,glycan array binding signal (z-score),Kdn(a2-6)Gal(b1-4)GlcNAc,-0.244
same,glycan array binding signal (z-score),[15],-0.428
same,glycan array binding signal (z-score),[16],-0.231
same,glycan array binding signal (z-score),Man(a1-2)Man(a1-3)Man,-0.197
same,glycan array binding signal (z-score),[17],-0.169
same,glycan array binding signal (z-score),[18],-0.259
same,glycan array binding signal (z-score),[19],-0.124
same,glycan array binding signal (z-score),[20],0.416
same,glycan array binding signal (z-score),[21],-0.371
same,glycan array binding signal (z-score),[22],-0.132
same,glycan array binding signal (z-score),Man(a1-3)[Man(a1-6)]Man,-0.197
same,glycan array binding signal (z-score),[23],-0.361
